The full ranking holds about 4,500 sequences; the median of “median log2 fold change of GCK-ALFA target abundance (FLAG IP / Myc IP barcode read proportion)” is about 0.078, and the lowest 2% start at about -0.6. The list shows a part of the results.
B1: GBRAP_160_4861 (protein)
chain: EEKLKRALEILEEARKEALAAIDEAPASQRAAVAEAYMGEAIMELIEEGLLNDELEEKLDEVRRELRARLLANADASVEEHKALVTEAFDRMKEIIKELM
B2: GBRAP_52_5893 (protein)
chain: MLEEAIEKLKEAIEAVKAGDEEKAKEILKEIVENFDEDTIIEAVEKLAEEILSKSLEEAKAFYETMEMLAEIWEEMGKDPEIASYIEAIAGAALYKVEQK
B3: GBRAP_125_3115 (protein)
chain: DEEQLLADLATIAKALGFDDDDIEEALRLARKFGLKQTLIAIMLAEGYEENAELADKLSEEEVKQAVKELAAYIKAHPDLTPEEVKKKLKEILEKLLAKS
B4: GBRAP_53_6387 (protein)
chain: MEEEIEKLKKEYRELLKKIEKADEEEAVKLGKEAVEILVELAKLGAPEEELEELTKEFAEQVKKHPELRPLALELAKRLYELGKENAAGILAETLVEELE
B5: GBRAP_128_3407 (protein)
chain: AVEAARAYTRELMERIKTGDAATARAAVAELVARLETLDEAEREAALETFEELLPELSEEKLDVVADTLRELRPTVDPETAEYVIEMEVEAGEEILEKEE
B6: GBRAP_80_6856 (protein)
chain: AAAALAAALAALKALLPEVAEDAKEIVEIARELGVPDADIADLMEALAELAKVDPELAAELIKELLEELKEEKERGDAERALAVVRGYAGEALMLAEELE
B7: GBRAP_52_6133 (protein)
chain: MREELREKVLELLELVKAGKLEEAKKRLLKIAKELSDEELREFAREFAEVVRELPPEDLDAAAELLELAEEALEEAGRPEELISLLIGEGARALYEVEQR
B8: GBRAP_52_6237 (protein)
chain: AAARMAALARRIVELVRAGDEAGARALAEELAATLNEEELRLFIDEFAALAATQPAEDIDAVARAAEIIAEALEAAGWPDVLVDDLEARVAAALVAVEER
B9: GBRAP_11_2745 (protein)
chain: KKEKLKKIAELAEKLAKTLQELIDKGVDNEKLLKEAEKLLEELTKLVKEHGDKSLQKLAEIAKENFEKAKADPANALQYLQEALAAARVLEGQVLLEIEE
B10: GBRAP_39_5646 (protein)
chain: EEKEEQELEFSYLLAIGEKYMVDNGLTDEQVPAETRRAAARVIAEHPEIAPLVEELLALAEAGDIEHQIAALGAFLLAEEGLPVEELREHLEKLIAYFKT
B11: GBRAP_52_6170 (protein)
chain: SEEEARRVAEELLEAVRAGDEERVRELLERIAREFSDEEIAATLAEVARRVPELSPEDKERVVEAALELEDIAVEAGHDEEVLDIEVARVAAAAYDALQA
B12: GBRAP_128_3584 (protein)
chain: SVAAARAYTRATLAAIKAADAATRRALARDLAERFASLSPEEQEAAADTILELLPELSPEDLRALADALRAADTSDSPLQTNLAAEVEVEALNKEEEEEE
B13: GBRAP_78_6721 (protein)
chain: ELEKLLDEAIEKLNEAAKLALELPEEKSNELLDLLVEAINLLMEIIENNLKKEEAIKLLEKAAKLLEEALKLLGGENPELKKKVEEAKKLVEEALKLLKK
B14: GBRAP_11_2697 (protein)
chain: KKEELKKAKELAEKLAKVLEQLIKEGVDNKELLAEAKKLLEEIKKLVEKYGDEGLKTLAKIIEELFKKALEDKENAVEYLKEAQAAARVLAGQFLLLIEE
B15: GBRAP_14_3862 (protein)
chain: MEKLVKAVDEAAKDLKELVKVVAPEHAEEINKKVDELAKKIKEKIKKENLNIEEVEELVEKAAEELAAYLKEKGYLSDTEIAALKAHLLSEILLKLEEIE
B16: GBRAP_184_5329 (protein)
chain: KTLEVHIENLPIEEIKKKVEEALKEAAAQGAALSIYIDASGYSIEEIKELIEYIGELAKKYGVKDVTLGIDKAVNEEEADILIEIADKYGIRLVLPLEDE
B17: GBRAP_11_2823 (protein)
chain: KKEALKEIAEKAKELADKLKALIASGKPTQEQLDELKKMAEELLKLEKKYGDKDQIKLAEILLEEINEAIANPETQLQHLQNALAAAQVLEGQALLDLEE
B18: GBRAP_137_3667 (protein)
chain: MIDAEIEIENGQAFATLTYKGDKATAERLAEVIEDVAGEIPGIAVSVEINDDGTLVADLFGTLEEVREALKRIARRMNLDVKVTTRDEETGEVTEETIKA
B19: GBRAP_128_3236 (protein)
chain: MSEEVRKKVEELIEKIINGSLEETREATRELVELMGELDDETAEEIAEMLIKAIPKLTKEKLDVVADVLRENRGKLDPLKAALAAEVEIEALEQAEELEE

The binders below were run against GABARAP, O95166 (assay: median log2 fold change of GCK-ALFA target abundance (FLAG IP / Myc IP barcode read proportion) (log2 ratio); each designed protein is fused to an ALFA-tag nanobody in HEK293 cells to bring the named protein to FLAG-tagged glucokinase (GCK); Myc marks an untargeted standard; higher = target protein stabilised (more abundant)). Settings: target protein: 3xFLAG-MCP-GCK-ALFA reporter; HEK293 landing pad (RPLP).
Procedure, shortened: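 The readout is target abundance, the per-binder median log2 ratio of FLAG to Myc barcode read proportions. It came from HEK293 landing-pad cells carrying a recombined ALFA-nanobody-fused binder library, induced with 2 μg mL^−1 doxycycline and transfected with a plasmid for a FLAG-tagged target and a Myc-tagged standard. After 48 h, lysates were immunoprecipitated with anti-FLAG and anti-Myc, and circular RNA barcodes were reverse transcribed, amplified and sequenced. Each barcode needed a proportion of at least 10^−7 in both replicates and each binder at least 3 barcodes per replicate, a pseudocount of 10^−6 was added, and the replicates were pooled.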

Sequence of GABARAP, O95166 (O95166 whole entry, the tested form may be a part): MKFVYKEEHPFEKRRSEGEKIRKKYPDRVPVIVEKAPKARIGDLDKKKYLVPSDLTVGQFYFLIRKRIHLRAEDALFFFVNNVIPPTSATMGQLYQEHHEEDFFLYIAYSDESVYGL

Binder	median log2 fold change
B1	0.228
B2	0.0936
B3	-0.409
B4	0.0549
B5	-0.149
B6	-0.242
B7	0.086
B8	0.0282
B9	0.224
B10	0.294
B11	0.0058
B12	0.136
B13	0.00845
B14	0.341
B15	0.197
B16	-0.086
B17	-0.158
B18	0.0191
B19	0.171

Source: the supplement of paper PMC12632987
